{"source": "paper PMC4336329", "about": "(PLoS ONE, 2015)", "note": "The campaign covered roughly 310,000 compounds. About 2,200 (0.71%) showed an effect of 50% or more. Effects have a minus sign here. Some of the results follow.", "data": [{"target": "human ether-à-go-go-related gene (hERG) potassium channel (human, UniProt Q12809)", "sequence (Q12809 whole entry, looked up)": "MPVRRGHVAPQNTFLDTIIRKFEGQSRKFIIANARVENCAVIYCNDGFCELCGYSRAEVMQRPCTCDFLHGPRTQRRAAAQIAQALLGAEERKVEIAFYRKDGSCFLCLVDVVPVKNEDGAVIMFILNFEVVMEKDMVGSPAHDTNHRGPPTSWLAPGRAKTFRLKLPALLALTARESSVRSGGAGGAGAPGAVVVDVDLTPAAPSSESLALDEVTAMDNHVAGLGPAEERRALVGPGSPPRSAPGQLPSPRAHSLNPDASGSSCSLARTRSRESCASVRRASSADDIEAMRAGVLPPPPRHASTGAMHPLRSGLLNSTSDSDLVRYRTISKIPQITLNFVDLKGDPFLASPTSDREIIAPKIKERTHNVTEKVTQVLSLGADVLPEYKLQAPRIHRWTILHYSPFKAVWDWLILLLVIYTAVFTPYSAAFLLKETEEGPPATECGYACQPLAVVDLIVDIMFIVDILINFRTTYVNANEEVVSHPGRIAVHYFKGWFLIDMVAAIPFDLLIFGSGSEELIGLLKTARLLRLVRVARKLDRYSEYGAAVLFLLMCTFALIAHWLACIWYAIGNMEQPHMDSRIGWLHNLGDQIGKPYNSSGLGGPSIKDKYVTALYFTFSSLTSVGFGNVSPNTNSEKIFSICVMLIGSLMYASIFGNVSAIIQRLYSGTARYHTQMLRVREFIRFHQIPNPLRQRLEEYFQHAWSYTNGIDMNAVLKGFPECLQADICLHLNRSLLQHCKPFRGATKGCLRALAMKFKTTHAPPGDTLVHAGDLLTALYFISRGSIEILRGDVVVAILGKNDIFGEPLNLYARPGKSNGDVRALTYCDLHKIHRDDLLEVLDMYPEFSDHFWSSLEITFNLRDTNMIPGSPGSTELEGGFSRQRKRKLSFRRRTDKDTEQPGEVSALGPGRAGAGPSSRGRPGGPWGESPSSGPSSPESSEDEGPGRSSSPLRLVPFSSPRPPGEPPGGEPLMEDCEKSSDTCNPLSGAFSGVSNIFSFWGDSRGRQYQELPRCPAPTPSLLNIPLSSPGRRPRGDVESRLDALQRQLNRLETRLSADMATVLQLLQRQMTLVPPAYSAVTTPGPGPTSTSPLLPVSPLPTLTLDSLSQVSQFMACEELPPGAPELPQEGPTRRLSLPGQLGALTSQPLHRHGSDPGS", "test": "primary screen, population patch clamp on CHO cells stably expressing hERG", "units": {"hERG current change (%, negative = inhibition) at 1uM": "%"}, "values": [{"smiles": "CN1CCN(c2ccccc2NC(=O)c2ccc(F)cc2)CC1", "hERG current change (%, negative = inhibition) at 1uM": 2.08}, {"smiles": "CCCCc1nc2ccccc2c(=O)n1-c1ccccc1O", "hERG current change (%, negative = inhibition) at 1uM": 9.52}, {"smiles": "OCC1(CCCc2ccccc2)CCN(Cc2cnc(N3CCOCC3)s2)CC1", "hERG current change (%, negative = inhibition) at 1uM": -6.15}, {"smiles": "Cc1ccc2c(c1)C(=O)CC(O)(C(F)(F)F)O2", "note": "(stereo not drawn)", "hERG current change (%, negative = inhibition) at 1uM": 13.5}, {"smiles": "CCCn1nnc2c(=O)oc3ccccc3c21", "hERG current change (%, negative = inhibition) at 1uM": 8.13}, {"smiles": "Cn1cc(C(=O)c2ccc(Cl)cc2Cl)cc1C=O", "hERG current change (%, negative = inhibition) at 1uM": 6.93}, {"smiles": "Cc1c(NC(=O)CN2CCCc3ccccc32)c(=O)n(-c2ccccc2)n1C", "hERG current change (%, negative = inhibition) at 1uM": 4.77}, {"smiles": "Cc1ccc2sc(-c3ccc(NC(=O)c4cc(-n5cnnc5)ccc4Cl)cc3)nc2c1", "hERG current change (%, negative = inhibition) at 1uM": -3.41}, {"smiles": "CCCC(=O)Nc1ccc(Cl)c(NC(=O)c2ccco2)c1", "hERG current change (%, negative = inhibition) at 1uM": 12}, {"smiles": "O=C1CCCN1CCC1CCCCN1Cc1nc(COc2ccccc2)no1", "note": "(stereo not drawn)", "hERG current change (%, negative = inhibition) at 1uM": 10.8}, {"smiles": "CC(Sc1ccc(Cl)cc1)C(=O)NCC(c1ccco1)N1CCCCC1", "note": "(stereo not drawn)", "hERG current change (%, negative = inhibition) at 1uM": -0.296}, {"smiles": "CCOCC(=O)Nc1nnc(Cc2ccc(OC)cc2)s1", "hERG current change (%, negative = inhibition) at 1uM": 8.4}, {"smiles": "CC(=O)O/N=C/c1c(Cl)n(C)c2ccccc12", "hERG current change (%, negative = inhibition) at 1uM": 6.55}, {"smiles": "Cc1ccc(CN2C3CCCC2CC(NC(=O)c2ccc(F)cc2)C3)cc1", "note": "(stereo not drawn)", "hERG current change (%, negative = inhibition) at 1uM": -77}, {"smiles": "Cn1cccc1C(=O)NCc1ccc(S(N)(=O)=O)cc1", "hERG current change (%, negative = inhibition) at 1uM": 11.7}, {"smiles": "Cc1onc(-c2ccccc2)c1C(=O)Nc1nnc(N2CCCCCC2)s1", "hERG current change (%, negative = inhibition) at 1uM": 6.25}, {"smiles": "Cc1nnc(NC(=O)c2ccc3c(c2)C(=O)N(CC2CCCO2)C3=O)s1", "note": "(stereo not drawn)", "hERG current change (%, negative = inhibition) at 1uM": -0.711}, {"smiles": "COc1ccc(OC)c(CN2C(=O)CCC2(C)C(=O)NC2CCCCCC2)c1", "note": "(stereo not drawn)", "hERG current change (%, negative = inhibition) at 1uM": -2.84}, {"smiles": "Cc1cc(C)c(S(=O)(=O)Nc2ccccc2C(=O)N2CCCC2)c(C)c1", "hERG current change (%, negative = inhibition) at 1uM": 9.97}, {"smiles": "COCC(=O)NC1CCN(CC(=O)Nc2ccc(OC)cc2[N+](=O)[O-])CC1", "hERG current change (%, negative = inhibition) at 1uM": 8.93}, {"smiles": "COc1ccc(C(=O)NNC(=O)CSc2nnc(COc3ccccc3OC)n2C)cc1", "hERG current change (%, negative = inhibition) at 1uM": 11.9}, {"smiles": "CN(CCCC(=O)Nc1ccccc1)S(=O)(=O)c1ccc(Cl)cc1", "hERG current change (%, negative = inhibition) at 1uM": -10.3}, {"smiles": "CSc1nc(N)c(N=Nc2ccc([As](=O)(O)O)cc2)c(=O)[nH]1", "hERG current change (%, negative = inhibition) at 1uM": 6.7}, {"smiles": "Cc1cc2n(n1)C(c1c[nH]c3ccccc13)Nc1ccccc1-2", "note": "(stereo not drawn)", "hERG current change (%, negative = inhibition) at 1uM": 10.5}, {"smiles": "Cn1nnc(NC(=O)c2ccco2)n1", "hERG current change (%, negative = inhibition) at 1uM": 5.17}, {"smiles": "CN(C)S(=O)(=O)c1cc(S(=O)(=O)N(C)C)c(Cl)cc1N", "hERG current change (%, negative = inhibition) at 1uM": 4.44}, {"smiles": "CCN(CC)CCNC(=O)Cn1nc(Cc2ccccc2)c2ccccc2c1=O", "hERG current change (%, negative = inhibition) at 1uM": -25.1}, {"smiles": "COCCNc1nc2c(c(=O)n(C)c(=O)n2C)n1Cc1cccc(C(F)(F)F)c1", "hERG current change (%, negative = inhibition) at 1uM": -6.46}, {"smiles": "COc1cc([N+](=O)[O-])cc(CN2CCCCC2)c1O", "hERG current change (%, negative = inhibition) at 1uM": -1.98}, {"smiles": "O=C(CN1CCN(S(=O)(=O)c2ccc(F)cc2)CC1)Nc1ccc(Cl)c(C(F)(F)F)c1", "hERG current change (%, negative = inhibition) at 1uM": 9}, {"smiles": "CC1CC(C)CN(c2oc(-c3ccccc3Cl)nc2C#N)C1", "note": "(stereo not drawn)", "hERG current change (%, negative = inhibition) at 1uM": 11.6}, {"smiles": "CC(=O)NCCC(=O)Nc1cc(S(=O)(=O)N2CCCCC2)ccc1N1CCCCC1", "hERG current change (%, negative = inhibition) at 1uM": 12.6}, {"smiles": "O=C(COc1ccccc1N1C(=O)c2ccccc2C1=O)c1ccc(Cl)cc1", "hERG current change (%, negative = inhibition) at 1uM": -4.06}, {"smiles": "O=C(CN(C(=O)CSc1nnc(COc2ccccc2)o1)c1ccc(F)cc1)NC1CCCC1", "hERG current change (%, negative = inhibition) at 1uM": 13.2}, {"smiles": "CCOC(=O)N1CCN(S(=O)(=O)c2ccc(C(=O)Nc3ccc(F)cc3F)cc2)CC1", "hERG current change (%, negative = inhibition) at 1uM": 4.52}, {"smiles": "Cc1ccc(S(=O)(=O)N2CCN(C(=O)CNC(=O)c3sc4ccccc4c3Cl)CC2)cc1", "hERG current change (%, negative = inhibition) at 1uM": 3.85}, {"smiles": "CCCCOc1ccc(-c2nnn(CC(=O)NCc3ccco3)n2)cc1", "hERG current change (%, negative = inhibition) at 1uM": 17.1}, {"smiles": "O=C(Nc1ccn(Cc2ccccc2F)n1)c1ccc(COc2ccccc2Cl)cc1", "hERG current change (%, negative = inhibition) at 1uM": -3.81}, {"smiles": "COc1cc(/C(C)=N/NC(=S)NC(C)C)cc(OC)c1OC", "hERG current change (%, negative = inhibition) at 1uM": 7.45}, {"smiles": "O=C(NCCc1c[nH]c2ccccc12)c1cccnc1", "hERG current change (%, negative = inhibition) at 1uM": 18.2}, {"smiles": "Cc1ccc(OCC2Cn3c(nc4c3c(=O)[nH]c(=O)n4C)O2)cc1", "note": "(stereo not drawn)", "hERG current change (%, negative = inhibition) at 1uM": -2.88}, {"smiles": "CC(C)(C)C(=O)N1CCN(c2ccc(NC(=O)c3ccc4c(c3)OCCO4)cc2)CC1", "hERG current change (%, negative = inhibition) at 1uM": 14.9}, {"smiles": "O=C1/C(=C/c2ccco2)N=C(N2CCCCC2)N1c1ccccc1", "hERG current change (%, negative = inhibition) at 1uM": 9.07}, {"smiles": "COc1ccc(NC(=O)COc2ccc(CNCCCN3CCOCC3)cc2OC)cc1.Cl", "hERG current change (%, negative = inhibition) at 1uM": 2.09}, {"smiles": "C=CCN(c1ccccc1OC)S(=O)(=O)c1cccc(C(=O)Nc2nnc(C3CC3)s2)c1", "hERG current change (%, negative = inhibition) at 1uM": 5.37}]}]}
